# Data taken from patent publication US9657104B2, “Anti-c-Met/anti-EGFR bispecific antibodies” (Samsung Electronics Co., Ltd., priority 2013, dated 2017).
# B1: huAbF46-H4-A1: affinity-matured humanized anti-c-Met antibody (L3-1 origin) (antibody)
# heavy: EVQLVESGGGLVQPGGSLRLSCAASGFTFTDYYMSWVRQAPGKGLEWLGFIRNKANGYTTEYSASVKGRFTISRDNSKNTLYLQMNSLRAEDTAVYYCARDNWFAYWGQGTLVTVSSASTKGPSVFPLAPSSKSTSGGTAALGCLVKDYFPEPVTVSWNSGALTSGVHTFPAVLQSSGLYSLSSVVTVPSSSLGTQTYICNVNHKPSNTKVDKKVEPKSCDCH[human IgG1 Fc not printed]
# light: DIQMTQSPSSLSASVGDRVTITCKSSQSLLASGNQNNHLAWYQQKPGKAPKMLIIWASTRVSGVPSRFSGSGSGTDFTLTISSLQPEDFATYYCQQSYSRPYTFGQGTKVEIKRTVAAPSVFIFPPSDEQLKSGTASVVCLLNNFYPREAKVQWKVDNALQSGNSQESVTEQDSKDSTYSLSSTLTLSKADYEKHKVYACEVTHQGLSSPVTKSFNRGEC
# Tests used:
# Conditions in all cases: among the four antibodies selected in Reference Example 1.7
# [1] = test system: c-Met; assay: Affinity for c-Met of affinity-matured antibodies; type: binding
# [2] = test system: Akt; assay: Akt phosphorylation by affinity-matured antibodies; type: cell-based
# [3] = test system: c-Met; assay: c-Met degradation degree of affinity-matured antibodies; type: cell-based
molecule,measurement,setting,value
B1,affinity for c-Met,[1],highest
same,Akt phosphorylation,[2],lowest
same,c-Met degradation degree,[3],lowest
